For 30 compounds, inhibition results are on record in ChEMBL document CHEMBL5606458, “ASAP - ZIKV NS2B-NS3 protease fluorescence single point” (2024).

Among all 2,700 compounds or so, about 160 (5.9%) showed an effect of 50% or more. The list shows a part of the results.

By inhibition is commonly meant the relative decrease from the control value, in per cent.

The target of this assay is Nonstructural protein 3 (Zika virus) (UniProt A0A024AXB9).
The mark [1] stands for this setting: PRVABC59, Concentration 15.0 uM, Number of replicates 1.0.
Setting [2] is: PRVABC59, Concentration 50.0 uM, Number of replicates 1.0.

Sequence of UniProt A0A024AXB9 (A0A024AXB9 as listed by the source): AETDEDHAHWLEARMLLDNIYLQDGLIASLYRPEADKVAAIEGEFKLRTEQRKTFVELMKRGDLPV

Regarding `Cn1cc(NC(=O)c2ccccc2C(F)(F)F)c(-c2c[nH]c3ncccc23)n1`, the inhibition by setting is: (PRVABC59, Concentration 49.5 uM, Number of replicates 2.0, Standard deviation 0.5899750414970726 %) -1.95%; (PRVABC59, Concentration 99.01 uM, Number of replicates 2.0, Standard deviation 0.6097608637254436 %) -0.338%; (PRVABC59, Concentration 198.0 uM, Number of replicates 2.0, Standard deviation 1.1817489526354386 %) -0.468%. In the case of `c1ccc2c([C@H]3CCN(Cc4cccn5nccc45)C3)c[nH]c2c1`, the inhibition by setting is: (PRVABC59, Concentration 50.0 uM, Number of replicates 2.0, Standard deviation 2.1789074371414117 %) 6.06%; (PRVABC59, Concentration 100.0 uM, Number of replicates 2.0, Standard deviation 1.840536015731338 %) 12%; (PRVABC59, Concentration 200.0 uM, Number of replicates 2.0, Standard deviation 1.989213912887944 %) 16.7%.

For `O=C(Nc1c(Cl)cccc1[N+](=O)[O-])c1cc(Cl)ccc1NS(=O)(=O)c1ccc(Oc2ccccc2Cl)cc1`, the inhibition under setting [1] amounted to 23.3%.

With `CCN(CC)C(=O)C1CCN(C(=O)C2CCN(c3ccc(C=O)cc3)CC2)CC1`, the inhibition under setting [2] came to 20.4%.

Regarding `Cc1nn(CCc2cc(F)cc(F)c2)cc1C1CCNCC1`, the inhibition by setting is: (PRVABC59, Concentration 49.5 uM, Number of replicates 2.0, Standard deviation 4.726749335771663 %) -0.042%; (PRVABC59, Concentration 99.01 uM, Number of replicates 2.0, Standard deviation 5.310861160584991 %) 0.775%; (PRVABC59, Concentration 198.0 uM, Number of replicates 2.0, Standard deviation 2.819064792405374 %) 1.96%. With `CCOc1ccc(CCNC(=O)C2CCN(c3ccc(C=O)cc3)CC2)cc1`, the inhibition under setting [2] was 21%. Still for that read-out and setting: in the case of `COCCCN(Cc1ccccc1)C(=O)C1CCN(c2ccc(C=O)cc2)CC1` it was 27.2%. Take `CCN(Cc1ccc(F)cc1)C(=O)c1cc(Cl)ccc1NS(=O)(=O)c1ccc(Oc2ccccc2Cl)cc1`: the inhibition under setting [1] is 27.3%. For the compound `O=Cc1ccc(N2CCC(C(=O)NCc3cncc(Br)c3)CC2)cc1`, the inhibition (PRVABC59, Concentration 10.0 uM, Number of replicates 1.0) worked out at 25.5%. For the compound `CC1(C)CCC(CN2CCN(C(=O)c3cc(Cl)ccc3NS(=O)(=O)c3ccc(Oc4ccccc4Cl)cc3)CC2)=C(c2ccc(Cl)cc2)C1`, the inhibition under setting [1] was determined as 29.7%. With `O=C(NCc1cccc(-n2cccn2)c1)c1cc(Cl)ccc1NS(=O)(=O)c1ccc(Oc2ccccc2Cl)cc1`, the inhibition under setting [1] turned out to be 33.4%. The same measure, in the same setting: the result for `O=C(Nc1n[nH]c2ccc(Br)cc12)c1cc(Cl)ccc1NS(=O)(=O)c1ccc(Oc2ccccc2Cl)cc1` reads 36.5%. As for `O=C(Nc1ccc(N2CCOCC2=O)cc1)c1cc(Cl)ccc1NS(=O)(=O)c1ccc(Oc2ccccc2Cl)cc1`, the inhibition under setting [1] came to 48.5%.

With `O=C(Nc1ncccc1OCc1ccccc1)c1cc(Cl)ccc1NS(=O)(=O)c1ccc(Oc2ccccc2Cl)cc1`, the inhibition under setting [1] stood at 21%. Still for that read-out and setting: in the case of `O=C(NCc1ccc(Br)cc1)c1cc(Cl)ccc1NS(=O)(=O)c1ccc(Oc2ccccc2Cl)cc1` it was 27.5%; in that of `Cc1ccc2cccc(NC(=O)c3cc(Cl)ccc3NS(=O)(=O)c3ccc(Oc4ccccc4Cl)cc3)c2n1`, 20.8%.

Consider `CC(=O)N[C@@H](CCCN)C(=O)Nc1cccc2c(Cl)cc(C)nc12`, for which the inhibition (PRVABC59, Concentration 99.9 uM, Number of replicates 2.0, Standard deviation 3.96053156793845 %) worked out at 2.63%. As for `CNC(=O)c1ccc2n1CCN(S(=O)(=O)CCn1cnc3ccccc31)[C@@H]2C`, the inhibition is, setting by setting: (PRVABC59, Concentration 49.5 uM, Number of replicates 2.0, Standard deviation 0.21013272273252268 %) -4.07%; (PRVABC59, Concentration 99.01 uM, Number of replicates 2.0, Standard deviation 0.3030759645931105 %) -5.35%; (PRVABC59, Concentration 198.0 uM, Number of replicates 2.0, Standard deviation 0.7496083375745093 %) -9.59%. For the compound `CNC(=O)c1cc(Cl)ccc1NC(=O)CNc1ccc(S(N)(=O)=O)cc1F`, the inhibition is, setting by setting: (PRVABC59, Concentration 49.5 uM, Number of replicates 2.0, Standard deviation 1.11548428656061 %) -4.54%; (PRVABC59, Concentration 99.01 uM, Number of replicates 2.0, Standard deviation 0.8274198492953218 %) -5.58%; (PRVABC59, Concentration 198.0 uM, Number of replicates 2.0, Standard deviation 0.7559141804613152 %) -7.96%. Consider `COc1ccc(-c2cc(NC(=O)c3cc(Cl)ccc3NS(=O)(=O)c3ccc(Oc4ccccc4Cl)cc3)[nH]n2)cc1`, for which, under setting [1], the inhibition came out at 57.5%. In the case of `CC(C)(C)OC(=O)NC1CN(C(=O)C2CCN(c3ccc(C=O)cc3)CC2)C1`, the inhibition under setting [2] stood at 20.6%. Same read-out and setting: in the case of `O=Cc1ccc(N2CCC(C(=O)N[C@H]3C[C@@H]3c3ccc(F)c(F)c3)CC2)cc1` it was 17.3%; in that of `O=Cc1ccc(N2CCC(C(=O)N3CCC[C@H](c4ccccc4)C3)CC2)cc1`, 25.7%. On to `Nc1cccc2c(Cl)ccnc12`, for which the inhibition (PRVABC59, Concentration 49.95 uM, Number of replicates 2.0, Standard deviation 13.26082141913299 %) is 25% and the inhibition (PRVABC59, Concentration 99.9 uM, Number of replicates 2.0, Standard deviation 5.807935528538471 %) turned out to be 61.3%. As for `Nc1ccc(C(=O)Nc2nc3ccccc3s2)cn1`, the inhibition (PRVABC59, Concentration 49.5 uM, Number of replicates 2.0, Standard deviation 2.1780366832511766 %) was 3.72%; the inhibition (PRVABC59, Concentration 99.01 uM, Number of replicates 2.0, Standard deviation 0.18481519512572567 %) is 1.19%; the inhibition (PRVABC59, Concentration 198.0 uM, Number of replicates 2.0, Standard deviation 1.744814116442124 %) worked out at 7.22%.

For `COc1cc(CCNC(=O)C2CCN(c3ccc(C=O)cc3)CC2)cc(OC)c1`, the inhibition under setting [2] came out at 22.2%. Still for that read-out and setting: in the case of `O=Cc1ccc(N2CCC(C(=O)N(Cc3cccc(F)c3)C3CCCC3)CC2)cc1` it was 25.2%. For `Cc1c(C(=O)N[C@@H](CO)CS(C)(=O)=O)ccc(O)c1NC(=O)c1ccncc1F`, the inhibition is, setting by setting: (PRVABC59, Concentration 49.5 uM, Number of replicates 2.0, Standard deviation 1.9638256628693456 %) 0.432%; (PRVABC59, Concentration 99.01 uM, Number of replicates 2.0, Standard deviation 3.3162227164860276 %) 1.85%; (PRVABC59, Concentration 198.0 uM, Number of replicates 2.0, Standard deviation 3.3628572560592405 %) 4.7%. For the compound `NC(=O)[C@@H]1Cc2ccccc2CN1C(=O)C1CCN(c2ccc(C=O)cc2)CC1`, the inhibition under setting [2] is 8.37%.

For the compound `Cc1cc(Cl)c2cccc(N)c2n1`, the inhibition turned out to be 5.79% (PRVABC59, Concentration 49.95 uM, Number of replicates 2.0, Standard deviation 7.781875381379218 %) and 14.4% (PRVABC59, Concentration 99.9 uM, Number of replicates 2.0, Standard deviation 5.7320152302040395 %).
